The source gives no read counts; variants with many changes may rest on few reads.
B1: CPEB3 Ribozyme (parent)
chain: UAACAGGGGGCCACAGCAGAAGCGUUCACGUCGCAGCCCCUGUCAGAUUCUGGUGAAUCUGCGAAUUCUGCUGUAUAUCUC

Variants of: B1
Assay: self-cleavage, relative activity (ratio to wild type); higher = more cleavage; in vitro, sequencing
Method in brief: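 CPEB3 self-cleaving ribozyme mutant libraries were made by rounds of error-prone PCR, barcoded, and transcribed in vitro with T7 RNA polymerase for 5 hours at 37°C. Cleavage occurred during transcription and a 15 min DNase I step before EDTA stop. RNAs were reverse transcribed with template switching and Illumina-sequenced, with DNA sequencing mapping barcodes to variants. Relative activity is the variant's cleaved/total read fraction divided by wild type's (minimum 5 reads), averaged across three batches.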

Row | Variant | self-cleavage
1 | A35G U43C U58A U78C | 0.26
2 | A35G U43C U58C U72C | 0.6
3 | A35G U43C U58C U80A | 0.5
4 | A35G U43C U60A | 0.45
5 | A35G U43C U66C U80C | 0.64
6 | A35G U43C U67C | 0.53
7 | A35G U43C U72C A75G U80A | 1.29
8 | A35G U43C U76A | 1.25
9 | A35G U43G A45U U48A | 0.05
10 | A35G U43G A47U U54A U72A U78C | 0.04
11 | A35G U48A U49G U72C | 0.63
12 | A35G U48A U51C U60A U78C | 0.22
13 | A35G U48A U58C | 0.45
14 | A35G U48C A56G | 1.23
15 | A35G U48C U49A | 0.9
16 | A35G U48C U49C | 0.34
17 | A35G U48C U49C G55U | 0.74
18 | A35G U48C U51A | 1.2
19 | A35G U48C U51C C71U | 0.33
20 | A35G U48C U58G | 1.15
21 | A35G U48C U72C | 1.17

Row | Variant | self-cleavage
22 | A35G U48C U72C A77G | 0.55
23 | A35G U48C U80C | 1.22
24 | A35G U49A U69C | 0.37
25 | A35G U49C A57G | 0.97
26 | A35G U49C A64G U67C | 0.46
27 | A35G U49C A64U | 0.46
28 | A35G U49C C50A U78C | 1.27
29 | A35G U49C U54A A56G U60G | 0.96
30 | A35G U49C U58A U67C | 0.11
31 | A35G U49C U60A U74C | 0.91
32 | A35G U49C U60C U76C | 0.2
33 | A35G U49C U66C U78C U80A | 0.33
34 | A35G U49C U69G | 0.47
35 | A35G U49C U80C | 1.09
36 | A35G U51A A56G | 1.27
37 | A35G U51A A57U A64G | 1.2
38 | A35G U51A A77U U80A | 1.32
39 | A35G U51A U54A U60G A64G | 0.94
40 | A35G U51A U54C U66C | 1.24
41 | A35G U51A U60C A64G | 1.06
42 | A35G U51A U66C | 1.25

Row | Variant | self-cleavage
43 | A35G U51C U54A U66C | 1.04
44 | A35G U51C U54C | 1.23
45 | A35G U51C U58C U78A | 1.14
46 | A35G U51C U66C U69C | 0.7
47 | A35G U51G A65G | 1.27
48 | A35G U54A A64G | 1.36
49 | A35G U54A A65G | 1.28
50 | A35G U54A U58C U67A | 1.08
51 | A35G U54C U60A | 0.99
52 | A35G U54C U66C | 1.21
53 | A35G U54C U72C | 1.36
54 | A35G U54G U72C | 1.15
55 | A35G U58A A65G C81U | 0.92
56 | A35G U58A A65U | 0.57
57 | A35G U58A U69A G73A | 0.9
58 | A35G U58C A75G | 1.25
59 | A35G U58C A77U U78A | 1.24
60 | A35G U58C C71A | 0.45
61 | A35G U58C G70A U78C | 0.89
62 | A35G U58C U60A U72A U76C | 0.59
63 | A35G U58C U60C A64G | 0.23

Row | Variant | self-cleavage
64 | A35G U58C U66C U78C | 0.67
65 | A35G U58C U69C U76C | 0.64
66 | A35G U60A C71A U72G U76A | 0.67
67 | A35G U60C A64C | 0.38
68 | A35G U60C A75G | 1.07
69 | A35G U60C C62A | 0.4
70 | A35G U60C C71A | 0.57
71 | A35G U60C U76A | 1.13
72 | A35G U60C U80A | 1.12
73 | A35G U60G U69A U74A | 0.74
74 | A35G U66C A75U U78C | 1.28
75 | A35G U66C G70U A77G U78C | 0.65
76 | A35G U66C U69C | 0.64
77 | A35G U66C U78G | 1.24
78 | A35G U67A U69C U72C U74C U80C | 0.35
79 | A35G U67C A75G | 0.82
80 | A35G U69C C71A U76C | 0.47
81 | A35G U69C C81A | 1.29
82 | A35G U69C U72A | 0.5
83 | A35G U69C U74A | 1.22

— the RNAGym collection of RNA variant scans (doi:10.1093/nar/gkz1192)
